In the supplement of paper PMC12067230:
This is a noisy data set.

Assay: amyloid nucleation score relative to library mode (yeast Sup35 reporter selection) (log enrichment difference); higher = more amyloid nucleation; sequences are the first 22 residues of the Bri2 peptide extended by up to 12 random residues
Settings: random library (experiment): 1;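 active = nucleation score significantly above 0 at FDR 0.05; inactive = not significantly above 0 or absent from output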
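Also: [psi-pin-] Saccharomyces cerevisiae expressing SupN fusions, induced by 100 µM Cu2SO4, selected 7 d at 30 °C without adenine and uracil, scored by deep sequencing of output versus input.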

| Sequence | amyloid nucleation score |
| --- | --- |
| EASNCFAIRHFENKFAVETLICEDSTRASLGAVP | inactive |
| EASNCFAIRHFENKFAVETLICEDVWLLELGLPS | 5.8 |
| EASNCFAIRHFENKFAVETLICEDWRGE | inactive |
| EASNCFAIRHFENKFAVETLICEE | -0.683 |
| EASNCFAIRHFENKFAVETLICEEQLIIGIPSYG | inactive |
| EASNCFAIRHFENKFAVETLICEEVRESGAFVRV | inactive |
| EASNCFAIRHFENKFAVETLICEFGYCQRASVPE | inactive |
| EASNCFAIRHFENKFAVETLICEFHSCTQCASHL | 7 |
| EASNCFAIRHFENKFAVETLICEFLACLW | 7.92 |
| EASNCFAIRHFENKFAVETLICEFPSSPSQWMRG | 2.95 |
| EASNCFAIRHFENKFAVETLICEFRLGCIPVRRA | inactive |
| EASNCFAIRHFENKFAVETLICEFSRGMGLVPRM | 0.00985 |
| EASNCFAIRHFENKFAVETLICEFSRMPCFRWSG | inactive |
| EASNCFAIRHFENKFAVETLICEFTIWRRRSGCW | 4.6 |
| EASNCFAIRHFENKFAVETLICEFVEAVRSKCG | inactive |
| EASNCFAIRHFENKFAVETLICEFVQKQICGLY | inactive |
| EASNCFAIRHFENKFAVETLICEFYCQNSSVILA | inactive |
| EASNCFAIRHFENKFAVETLICEFYVLSVVQCSA | inactive |
| EASNCFAIRHFENKFAVETLICEG | inactive |
| EASNCFAIRHFENKFAVETLICEGCRVHVEGV | 0.786 |
| EASNCFAIRHFENKFAVETLICEGEWTFWVWCLC | inactive |
| EASNCFAIRHFENKFAVETLICEGFIVRIVLSDE | inactive |
| EASNCFAIRHFENKFAVETLICEGGRLQNPALPV | inactive |
| EASNCFAIRHFENKFAVETLICEGHAVVSACSWE | inactive |
| EASNCFAIRHFENKFAVETLICEGIGGSSRASEG | inactive |
| EASNCFAIRHFENKFAVETLICEGIYNSSFAHAW | inactive |

| Sequence | amyloid nucleation score |
| --- | --- |
| EASNCFAIRHFENKFAVETLICEGLAVSARSTAA | -0.438 |
| EASNCFAIRHFENKFAVETLICEGLYGAVCSLGR | inactive |
| EASNCFAIRHFENKFAVETLICEGSGLPVLGWCD | inactive |
| EASNCFAIRHFENKFAVETLICEGTTVLFWGSSM | 8.37 |
| EASNCFAIRHFENKFAVETLICEGYDTVMNRGKW | 1.25 |
| EASNCFAIRHFENKFAVETLICEGYVFCPVTRSR | inactive |
| EASNCFAIRHFENKFAVETLICEHD | inactive |
| EASNCFAIRHFENKFAVETLICEHEWMDMGTPAV | inactive |
| EASNCFAIRHFENKFAVETLICEHNGKSTGQRDW | inactive |
| EASNCFAIRHFENKFAVETLICEHRQVVTDDVAS | inactive |
| EASNCFAIRHFENKFAVETLICEHVAIAGKVPCS | inactive |
| EASNCFAIRHFENKFAVETLICEHW | inactive |
| EASNCFAIRHFENKFAVETLICEHWGMPVRFIRY | inactive |
| EASNCFAIRHFENKFAVETLICEHWYNHFVMVLG | inactive |
| EASNCFAIRHFENKFAVETLICEI | 0.645 |
| EASNCFAIRHFENKFAVETLICEIGLERA | inactive |
| EASNCFAIRHFENKFAVETLICEIPVQPHSADML | inactive |
| EASNCFAIRHFENKFAVETLICEIQRTWYIHWVL | inactive |
| EASNCFAIRHFENKFAVETLICEIRRTYSRTWVS | -0.129 |
| EASNCFAIRHFENKFAVETLICEK | inactive |
| EASNCFAIRHFENKFAVETLICEKAIAQSYPGPV | inactive |
| EASNCFAIRHFENKFAVETLICEKFDDVAHPREY | inactive |
| EASNCFAIRHFENKFAVETLICEKFMVDEGSRGP | 5.12 |
| EASNCFAIRHFENKFAVETLICEKFRSIAMTRAC | inactive |
| EASNCFAIRHFENKFAVETLICEKIMSFATVVHG | inactive |
| EASNCFAIRHFENKFAVETLICEKLVDLNLRCFV | 5.94 |

Same assay, conditions: random library (experiment): 2

| Sequence | amyloid nucleation score |
| --- | --- |
| EASNCFAIRHFENKFAVETLICEDSKLRGILKGA | -0.0583 |
| EASNCFAIRHFENKFAVETLICEDSWL | inactive |
| EASNCFAIRHFENKFAVETLICEECVGWPRGGPR | 4.28 |
| EASNCFAIRHFENKFAVETLICEEGMGSLTGGIS | inactive |
| EASNCFAIRHFENKFAVETLICEEMGYLDPICER | 3.02 |
| EASNCFAIRHFENKFAVETLICEETCSWVDGKLW | inactive |
| EASNCFAIRHFENKFAVETLICEETSVQTLGNSY | inactive |
| EASNCFAIRHFENKFAVETLICEFKSPIGNVYWL | 3.95 |
| EASNCFAIRHFENKFAVETLICEFYGLFDLWKSR | 2.37 |
| EASNCFAIRHFENKFAVETLICEGDIDKDSDFQV | inactive |
| EASNCFAIRHFENKFAVETLICEGGYTQRESSRM | inactive |
| EASNCFAIRHFENKFAVETLICEGHQAISNILAV | inactive |
| EASNCFAIRHFENKFAVETLICEGPYSHTDEFLC | inactive |
| EASNCFAIRHFENKFAVETLICEGYVNCDSAVKV | -0.405 |
| EASNCFAIRHFENKFAVETLICEH | inactive |
| EASNCFAIRHFENKFAVETLICEHFYKFGCCIYD | 5.16 |
| EASNCFAIRHFENKFAVETLICEHGF | inactive |

| Sequence | amyloid nucleation score |
| --- | --- |
| EASNCFAIRHFENKFAVETLICEHRCWYDRDIVL | inactive |
| EASNCFAIRHFENKFAVETLICEIKCTPFTLHYD | 2.73 |
| EASNCFAIRHFENKFAVETLICEIMMGFTILTLE | inactive |
| EASNCFAIRHFENKFAVETLICEIMYGF | inactive |
| EASNCFAIRHFENKFAVETLICEIRLLEVNCTGW | 6.06 |
| EASNCFAIRHFENKFAVETLICEIRLNSRYFRVW | inactive |
| EASNCFAIRHFENKFAVETLICEISNDR | -0.131 |
| EASNCFAIRHFENKFAVETLICEIVRVSSNPYSR | 2.03 |
| EASNCFAIRHFENKFAVETLICEKCHI | inactive |
| EASNCFAIRHFENKFAVETLICEKEGDKRHNVV | inactive |
| EASNCFAIRHFENKFAVETLICEKLCDVYWLYWC | inactive |
| EASNCFAIRHFENKFAVETLICEKLCGIHAFCYL | 0.635 |
| EASNCFAIRHFENKFAVETLICEKLNLLKGDRCW | 1.08 |
| EASNCFAIRHFENKFAVETLICEKMCYGPVVLCG | 0.707 |
| EASNCFAIRHFENKFAVETLICEKNGRHSTFFSE | inactive |
| EASNCFAIRHFENKFAVETLICEKNNSWFTCYCG | 7.66 |

Same assay, conditions: random library (experiment): 3

| Sequence | amyloid nucleation score |
| --- | --- |
| EASNCFAIRHFENKFAVETLICEDRRLSGGCMRL | -0.239 |
| EASNCFAIRHFENKFAVETLICEDYEVPSHTARL | inactive |
| EASNCFAIRHFENKFAVETLICEEA | inactive |
| EASNCFAIRHFENKFAVETLICEEAPAPRGRSRL | inactive |
| EASNCFAIRHFENKFAVETLICEEGRYPSQVRSY | inactive |
| EASNCFAIRHFENKFAVETLICEEQRWWELSALE | inactive |
| EASNCFAIRHFENKFAVETLICEERFVDVARAGD | inactive |
| EASNCFAIRHFENKFAVETLICEERIATSATVCG | inactive |
| EASNCFAIRHFENKFAVETLICEEVVS | inactive |
| EASNCFAIRHFENKFAVETLICEFACIGIELC | 6.96 |
| EASNCFAIRHFENKFAVETLICEFEYIGM | inactive |
| EASNCFAIRHFENKFAVETLICEFFAE | -0.784 |
| EASNCFAIRHFENKFAVETLICEFGMYPKVAGRG | inactive |
| EASNCFAIRHFENKFAVETLICEFK | 1.47 |
| EASNCFAIRHFENKFAVETLICEFQFSIGIRVVG | inactive |
| EASNCFAIRHFENKFAVETLICEFQYRICSRCLM | inactive |
| EASNCFAIRHFENKFAVETLICEFRLGVRVWVIS | inactive |

| Sequence | amyloid nucleation score |
| --- | --- |
| EASNCFAIRHFENKFAVETLICEFVKDDAEQRRH | 1.31 |
| EASNCFAIRHFENKFAVETLICEGASDEGEAPVC | inactive |
| EASNCFAIRHFENKFAVETLICEGASGQGMSCG | inactive |
| EASNCFAIRHFENKFAVETLICEGASRDGIEVDM | inactive |
| EASNCFAIRHFENKFAVETLICEGEWSP | inactive |
| EASNCFAIRHFENKFAVETLICEGGTW | 4.51 |
| EASNCFAIRHFENKFAVETLICEGHLSYRWPMRL | inactive |
| EASNCFAIRHFENKFAVETLICEGLVTSWETMWA | inactive |
| EASNCFAIRHFENKFAVETLICEGPGSSVVEDWP | inactive |
| EASNCFAIRHFENKFAVETLICEGPLLTCKGLTE | inactive |
| EASNCFAIRHFENKFAVETLICEGVSPSCGAPAG | inactive |
| EASNCFAIRHFENKFAVETLICEGYLRAA | inactive |
| EASNCFAIRHFENKFAVETLICEIEDGSVIGIQS | inactive |
| EASNCFAIRHFENKFAVETLICEIHRMSIKAL | 1.62 |
| EASNCFAIRHFENKFAVETLICEINDHAWGTVTV | inactive |
| EASNCFAIRHFENKFAVETLICEKAYPESMGWQR | 0.702 |
| EASNCFAIRHFENKFAVETLICEKGELRWLRRRA | 2.42 |
